Reference: the supplement of paper PMC10126150
Values marked as one replicate rest on one cluster of the flow cell; about a third of the high ones do not repeat.
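Note: ATP exposure 15 min at 22 °C before imaging.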

The sequences below were run on ATP (assay: switch fluorescence ratio, 500 uM ATP over buffer (Cy3 cluster intensity, sum of 5 cycles each) (fold (ratio)); higher = stronger signal-on switching upon ATP binding; sequences stand for … in TCGTCGGCAGCGTCAGATGTGTATAAGAGACAGTTTTTTTTTTTTTTTTTTTTTTTTT…TC). Conditions: aptamer strand: ATP DNA aptamer (quencher-CACCTGGGGGAGTATTGCGGAGGAAGG + anchor), 100 nM annealed; ATP concentration: 500 uM; one replicate.
How it was run: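 Five buffer/ATP imaging cycles were run on Cy3-labelled switching-strand clusters on a modified Illumina MiSeq flow-cell, with NaOH stripping and re-annealing between cycles. In each cycle, clusters annealed to 100 nM quencher-labelled ATP aptamer were imaged in selection buffer, then after 15 min with 500 uM ATP at 22 °C. Per cluster, the fluorescence ratio is summed target-cycle over summed buffer-cycle Cy3 intensity, averaged per switch-domain sequence. Only clusters within 100-1000 RFU were kept.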
In the case of GTTGTGGTAA, the switch fluorescence ratio was 1.
In the case of GTTTAAAGAG, the switch fluorescence ratio was 0.982.
Sequence GTTTAACCTC has a switch fluorescence ratio of 1.03.
With GTTTAACGTG the switch fluorescence ratio was 0.996.
For GTTTACACTT, the switch fluorescence ratio was 0.993.
GTTTACGACC showed a switch fluorescence ratio of 1.12.
GTTTACTATC gave a switch fluorescence ratio of 0.984.
GTTTAGCAAT was tested, and the switch fluorescence ratio was 1.68.
GTTTAGCCTT gave a switch fluorescence ratio of 1.01.
In the case of GTTTAGTGCG, the switch fluorescence ratio was 0.959.
GTTTATAGTG was tested, and the switch fluorescence ratio was 0.949.
GTTTCAATTT was tested, and the switch fluorescence ratio was 1.03.
Work on GTTTCATGGT yielded a switch fluorescence ratio of 0.948.
GTTTCCGGTT was tested, and the switch fluorescence ratio was 1.05.
With GTTTCCGTCG the switch fluorescence ratio was 1.03.
In the case of GTTTCGAAAC, the switch fluorescence ratio was 1.04.
With GTTTCTGATC the switch fluorescence ratio was 1.01.
In the case of GTTTCTTGCA, the switch fluorescence ratio was 0.997.
In the case of GTTTCTTTTC, the switch fluorescence ratio was 1.03.
In the case of GTTTGCATGG, the switch fluorescence ratio was 0.988.
For GTTTGGTGG, the switch fluorescence ratio was 0.986.
Sequence GTTTGGTTCC has a switch fluorescence ratio of 1.07.
Work on GTTTGTGAAG yielded a switch fluorescence ratio of 1.03.
In the case of GTTTGTTCTT, the switch fluorescence ratio was 0.981.
Work on GTTTTAAAAC yielded a switch fluorescence ratio of 1.01.
For GTTTTAGGG, the switch fluorescence ratio was 0.998.
Sequence GTTTTAGTG has a switch fluorescence ratio of 0.972.
Work on GTTTTATGCA yielded a switch fluorescence ratio of 0.974.
GTTTTCCGGC showed a switch fluorescence ratio of 1.02.
Sequence GTTTTCGGAG has a switch fluorescence ratio of 1.01.
With GTTTTCTTAA the switch fluorescence ratio was 0.959.
With GTTTTGGATG the switch fluorescence ratio was 1.01.
GTTTTGGCGA was tested, and the switch fluorescence ratio was 1.01.
Work on GTTTTTAGCG yielded a switch fluorescence ratio of 0.952.
Sequence GTTTTTATAC has a switch fluorescence ratio of 1.03.
In the case of TAAAAAAGGC, the switch fluorescence ratio was 1.05.
TAAAAACACG gave a switch fluorescence ratio of 1.28.
TAAAAACGCG gave a switch fluorescence ratio of 1.16.
TAAAAAGAGG showed a switch fluorescence ratio of 0.984.
Work on TAAAACCTGT yielded a switch fluorescence ratio of 1.07.
TAAAAGACCA gave a switch fluorescence ratio of 0.98.
TAAAAGGCG was tested, and the switch fluorescence ratio was 1.05.
With TAAAAGGGCA the switch fluorescence ratio was 0.993.
TAAAAGTGG gave a switch fluorescence ratio of 1.01.
TAAAAGTGTG was tested, and the switch fluorescence ratio was 1.38.
TAAAATTAAA was tested, and the switch fluorescence ratio was 0.998.
TAAACACTCA showed a switch fluorescence ratio of 1.05.
Work on TAAACCCCTG yielded a switch fluorescence ratio of 1.03.
In the case of TAAACGCCG, the switch fluorescence ratio was 1.07.
TAAACGGGTT gave a switch fluorescence ratio of 1.03.
TAAACGTAAA was tested, and the switch fluorescence ratio was 1.1.
Sequence TAAACGTTGC has a switch fluorescence ratio of 1.62.
TAAACTCACG was tested, and the switch fluorescence ratio was 1.38.
TAAACTCGTA showed a switch fluorescence ratio of 1.03.
With TAAAGACAAC the switch fluorescence ratio was 0.975.
Work on TAAAGACGAC yielded a switch fluorescence ratio of 1.56.
Work on TAAAGACTTA yielded a switch fluorescence ratio of 0.994.
TAAAGATCCT showed a switch fluorescence ratio of 1.07.
With TAAAGATGTA the switch fluorescence ratio was 1.07.
TAAAGATTGG gave a switch fluorescence ratio of 0.983.
Sequence TAAAGCAGCG has a switch fluorescence ratio of 0.987.
In the case of TAAAGCCGCC, the switch fluorescence ratio was 1.16.
For TAAAGCGTAA, the switch fluorescence ratio was 1.01.
In the case of TAAAGCTACA, the switch fluorescence ratio was 1.07.
TAAAGCTTGC was tested, and the switch fluorescence ratio was 1.07.
In the case of TAAAGGAACT, the switch fluorescence ratio was 1.01.
TAAAGGAAGA showed a switch fluorescence ratio of 0.975.
TAAAGGAGCG showed a switch fluorescence ratio of 1.01.
TAAAGGATCA gave a switch fluorescence ratio of 0.966.
Work on TAAAGGCAA yielded a switch fluorescence ratio of 1.1.
For TAAAGGCCGA, the switch fluorescence ratio was 1.05.
Work on TAAAGGTTAA yielded a switch fluorescence ratio of 0.977.
For TAAAGGTTCA, the switch fluorescence ratio was 0.996.
TAAAGTCCA showed a switch fluorescence ratio of 0.966.
With TAAAGTCGGG the switch fluorescence ratio was 1.01.
Sequence TAAAGTGGG has a switch fluorescence ratio of 0.967.
For TAAATATCTG, the switch fluorescence ratio was 1.01.
With TAAATATTAC the switch fluorescence ratio was 0.993.
Work on TAAATCAAAA yielded a switch fluorescence ratio of 1.04.
For TAAATCACAG, the switch fluorescence ratio was 1.02.
Sequence TAAATCGCTG has a switch fluorescence ratio of 1.02.
Sequence TAAATCTAAG has a switch fluorescence ratio of 0.969.
Work on TAAATGAATC yielded a switch fluorescence ratio of 1.01.
With TAAATTGAAG the switch fluorescence ratio was 0.975.
Sequence TAAATTTACC has a switch fluorescence ratio of 0.989.
With TAACAACAAA the switch fluorescence ratio was 0.986.
TAACAATACT was tested, and the switch fluorescence ratio was 1.13.
Sequence TAACAATTGC has a switch fluorescence ratio of 0.996.
Work on TAACACAGGG yielded a switch fluorescence ratio of 1.07.
Work on TAACACATAC yielded a switch fluorescence ratio of 1.56.
In the case of TAACAGAAAT, the switch fluorescence ratio was 0.987.
TAACATTGGG showed a switch fluorescence ratio of 0.964.
TAACATTGT was tested, and the switch fluorescence ratio was 1.02.
For TAACCAATAT, the switch fluorescence ratio was 1.05.
With TAACCAGCGG the switch fluorescence ratio was 1.12.
Work on TAACCCGATG yielded a switch fluorescence ratio of 1.01.
With TAACCCGCCT the switch fluorescence ratio was 1.02.
TAACCCTGCT was tested, and the switch fluorescence ratio was 0.978.
TAACCGGGAC was tested, and the switch fluorescence ratio was 1.24.
TAACCGTTGA was tested, and the switch fluorescence ratio was 1.02.
